Data on one molecule can be found in US8916527B2, “Antibiotic macrocycle compounds and methods of manufacture and use thereof” (Optimer Pharmaceuticals, Inc., priority 2007, dated 2014).

The conditions of the data set: human, in vivo. On the procedure:
In the phase 2A study of OPT-80 in CDAD patients who were administered OPT-80 at 200 mg bid (the intended dosing regimen), fecal levels of the parent OPT-80 were 1433±975 μg/g, while fecal levels of the metabolite Formula II were 760±373 μg/g (6). Thus, after oral administration, both parent and metabolite are present at levels far in excess of their MIC values versus C. difficile (FIG. 1).

The molecule `CCc1c(Cl)c(O)c(Cl)c(O)c1C(=O)O[C@H]1[C@H](O)[C@H](OC)[C@H](OC/C2=C\C=C\C[C@H](O)/C(C)=C/[C@H](CC)[C@@H](O[C@@H]3OC(C)(C)[C@@H](O)[C@H](O)[C@@H]3O)/C(C)=C/C(C)=C/C[C@@H]([C@@H](C)O)OC2=O)O[C@@H]1C` [Formula II] displayed a fecal levels of 760 ± 373 µg/g.
